For 153 variants, enrichment ratio results are on record in a collection of fitness landscapes (doi:10.1126/science.1257360).

Some of the results follow.

B1: PhoQ; a variant is named by its letters at X, in order, P23837 (parent)
chain: MKKLLRLFFPLSLRVRFLLATAAVVLVLSLAYGMVALIGYSVSFDKTTFRLLRGESNLFYTLAKWENNKLHVELPENIDKQSPTMTLIYDENGQLLWAQRDVPWLMKMIQPDWLKSNGFHEIEADVNDTSLLLSGDHSIQQQLQEVREDDDDAEMTHSVAVNVYPATSRMPKLTIVVVDTIPVELKSSYMVWSWFIYVLSANLLLVIPLLWVAAWWSLRPIEALAKEVRELEEHNRELLNPATTRELTSLVRNLNRLLKSERERYDKYRTTLTDLTHSLKTPLXXLQXXLRSLRSEKMSVSDAEPVMLEQISRISQQIGYYLHRASMRGGTLLSRELHPVAPLLDNLTSALNKVYQRKGVNISLDISPEISFVGEQNDFVEVMGNVLDNACKYCLEFVEISARQTDEHLYIVVEDDGPGIPLSKREVIFDRGQRVDTLRPGQGVGLAVAREITEQYEGKIVAGESMLGGARMEVIFGRQHSAPKDE

The assay covers variants of B1. The assay is described as follows: enrichment ratio after two sorts for PhoP signalling (ratio (wild type AVST 3.29)); higher = more functional. Conditions: with PhoP (E. coli).
As to RISC, the enrichment ratio is at most 0.25.
In the case of YPTC, the enrichment ratio was at most 0.25.
As to HQNI, the enrichment ratio was at most 0.25.
Consider TLMM, for which the enrichment ratio was 0.445.
With MAYC the figure was 0.655; with AKLI, 4.91.
To QEKL belongs at most 0.25.
With QPID the figure was at most 0.25.
In the case of PLIK, the enrichment ratio was at most 0.25.
Take YGGY: the enrichment ratio was at most 0.25.
With SPLK, the enrichment ratio was at most 0.25.
To LAWK belongs at most 0.25; to GWKS, at most 0.25.
To GDLG belongs at most 0.25; to FLNT, at most 0.25.
On to VVTT, for which the enrichment ratio is at most 0.25.
With EYRV the figure was at most 0.25.
Take QQHL: the enrichment ratio is at most 0.25.
With QCDV the figure was at most 0.25; with HGWN, at most 0.25; with SCPG, at most 0.25.
As to GYWK, the enrichment ratio is at most 0.25.
To EVIL belongs at most 0.25.
With GLVP the figure was at most 0.25; with DSKP, at most 0.25.
Turning to MEHT, the enrichment ratio was 24.2.
On to AMNP, for which the enrichment ratio was at most 0.25.
As to QQER, the enrichment ratio is at most 0.25.
Consider NMKC, for which the enrichment ratio is at most 0.25.
To GEMT belongs at most 0.25.
Consider FRGE, for which the enrichment ratio was at most 0.25.
To IYHP belongs at most 0.25.
On to FWWH, for which the enrichment ratio was at most 0.25.
Turning to ITNC, the enrichment ratio was at most 0.25.
To EAFM belongs at most 0.25.
With HCGN the figure was at most 0.25; with KRMY, at most 0.25.
With NQPY the figure was at most 0.25; with AQHH, at most 0.25; with RAAA, at most 0.25.
Turning to WGMY, the enrichment ratio was at most 0.25.
Regarding MQDI, the enrichment ratio is at most 0.25.
With EQTA, the enrichment ratio was at most 0.25.
Consider SEHS, for which the enrichment ratio is 1.64.
To YPRC belongs at most 0.25.
With YMTE, the enrichment ratio is at most 0.25.
With NTVG the figure was at most 0.25; with WLWD, at most 0.25; with WYDE, at most 0.25.
With SCHR the figure was at most 0.25; with WGTN, at most 0.25; with VDHY, at most 0.25.
As to LRQS, the enrichment ratio is at most 0.25.
Regarding PQHP, the enrichment ratio is at most 0.25.
With LISS the figure was at most 0.25; with TTWD, 0.754; with QINQ, at most 0.25.
Consider SDLL, for which the enrichment ratio worked out at 3.89.
AMIP: the enrichment ratio is at most 0.25.
With EKIY the figure was at most 0.25; with QFWH, at most 0.25; with YTPQ, at most 0.25.
Consider HTCD, for which the enrichment ratio was at most 0.25.
With GGPL the figure was at most 0.25.
To SSNM belongs 9.85.
With AKYF the figure was at most 0.25.
On to ISDS, for which the enrichment ratio was at most 0.25.
With GCSP, the enrichment ratio was at most 0.25.
With GFPK the figure was at most 0.25; with KHKV, at most 0.25.
Regarding IWLE, the enrichment ratio is at most 0.25.
Consider GNCN, for which the enrichment ratio is at most 0.25.
With AVGI the figure was at most 0.25; with AWNN, at most 0.25; with AVQQ, at most 0.25.
For the variant TEKV, the enrichment ratio was at most 0.25.
To TPAY belongs at most 0.25; to HCTL, at most 0.25; to KTWD, at most 0.25.
For ISDN, the enrichment ratio is at most 0.25.
To FHAF belongs at most 0.25.
To SQEA belongs at most 0.25; to FSYQ, at most 0.25; to LTRC, at most 0.25.
In the case of VKLA, the enrichment ratio was at most 0.25.
With IDLF the figure was at most 0.25.
With DMPH the figure was at most 0.25; with VDKR, at most 0.25; with LNVQ, at most 0.25.
Turning to FMVW, the enrichment ratio came out at 0.328.
KQWL: the enrichment ratio is at most 0.25.
With MIYG, the enrichment ratio was found to be 6.45.
In the case of AAQR, the enrichment ratio was at most 0.25.
For SLGD, the enrichment ratio is at most 0.25.
To EAVY belongs at most 0.25.
On to DACP, for which the enrichment ratio is at most 0.25.
Consider PGVV, for which the enrichment ratio is at most 0.25.
To LVSK belongs at most 0.25; to NVIL, at most 0.25.
YSSQ: the enrichment ratio was at most 0.25.
Turning to IGIS, the enrichment ratio is at most 0.25.
With LPHD the figure was at most 0.25; with VSNA, at most 0.25; with NQHA, at most 0.25.
To IYDW belongs at most 0.25; to TTQS, 7.92.
For the variant TCHI, the enrichment ratio was 3.98.
LDAR: the enrichment ratio was at most 0.25.
To DYIY belongs at most 0.25; to PGIQ, at most 0.25; to RGHF, at most 0.25.
With MSND the figure was at most 0.25; with RETK, at most 0.25.
Turning to QGKM, the enrichment ratio was at most 0.25.
Consider EDWI, for which the enrichment ratio is at most 0.25.
For the variant YVIM, the enrichment ratio was at most 0.25.
Consider WEQR, for which the enrichment ratio is at most 0.25.
Regarding PPPA, the enrichment ratio is at most 0.25.
With VLYK the figure was at most 0.25; with WHFF, at most 0.25.
Consider DARY, for which the enrichment ratio was at most 0.25.
To TVDR belongs 2.02; to FHRT, at most 0.25.
With NGVI the figure was at most 0.25.
For APQL, the enrichment ratio was at most 0.25.
On to ESHY, for which the enrichment ratio is at most 0.25.
ELHP: the enrichment ratio is at most 0.25.
With GYHI the figure was at most 0.25; with MDGP, at most 0.25; with VDDC, at most 0.25.
Turning to TRAI, the enrichment ratio turned out to be 0.306.
On to DCDQ, for which the enrichment ratio is at most 0.25.
KGLP: the enrichment ratio is at most 0.25.
With NPLD the figure was at most 0.25; with DDEH, at most 0.25.
To KVLT belongs at most 0.25; to EKYK, at most 0.25.
With HKKI the figure was at most 0.25; with YHRV, at most 0.25.
With EMQC, the enrichment ratio was at most 0.25.
Take HHPT: the enrichment ratio was at most 0.25.
For the variant IMEF, the enrichment ratio was at most 0.25.
Take PLQT: the enrichment ratio was at most 0.25.
With NNTC the figure was at most 0.25; with AARK, at most 0.25; with LRLR, at most 0.25.
PPWL: the enrichment ratio is at most 0.25.
For the variant DWEY, the enrichment ratio is at most 0.25.
To FEYQ belongs at most 0.25; to DSLE, at most 0.25; to YPHD, at most 0.25.
To FMGP belongs at most 0.25.
Turning to CPIT, the enrichment ratio is at most 0.25.
